PMC9911399, “Two distinct binding modes provide the RNA-binding protein RbFox with extraordinary sequence specificity”
Substitutions are numbered along the chain they refer to; changes in the protein carry UniProt numbers. This is one part of the list.

T1: RBFOX1 RRM RbFoxmut (Fox-RRM*) (Homo sapiens, UniProt Q9NWB1 109-208, R118D;E147R;N151S;E152T)
T1 sequence: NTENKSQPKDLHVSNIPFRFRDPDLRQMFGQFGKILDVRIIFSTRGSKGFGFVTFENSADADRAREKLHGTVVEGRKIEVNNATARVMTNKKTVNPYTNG

B1: GACUGUC (DNA:RNA)
RNA: GGGAGACCGGAAUUCAGAUUGUCCGACUGUCUUAAAUCCCGUCGUAGCCACCA
DNA 1: CAATCTGAATTCCGGTCTCCC
DNA 2: TGGTGGCTACGACGGGATT
B2: GUUUCGC (DNA:RNA)
RNA: B1 RNA with A26U, C27U, G29C, U30G
DNA 1: CAATCTGAATTCCGGTCTCCC
DNA 2: TGGTGGCTACGACGGGATT
B3: UUGCACG (DNA:RNA)
RNA: GGGAGACCGGAAUUCAGAUUGUCCUUGCACGUUAAAUCCCGUCGUAGCCACCA
DNA 1: CAATCTGAATTCCGGTCTCCC
DNA 2: TGGTGGCTACGACGGGATT
B4: GCAGCGC (DNA:RNA)
RNA: B1 RNA with A26C, C27A, U28G, G29C, U30G
DNA 1: CAATCTGAATTCCGGTCTCCC
DNA 2: TGGTGGCTACGACGGGATT
B5: CAGUGUA (DNA:RNA)
RNA: B1 RNA with G25C, C27G, C31A
DNA 1: CAATCTGAATTCCGGTCTCCC
DNA 2: TGGTGGCTACGACGGGATT
B6: AGCCAAA (DNA:RNA)
RNA: B3 RNA with U25A, U26G, G27C, C30A, G31A
DNA 1: CAATCTGAATTCCGGTCTCCC
DNA 2: TGGTGGCTACGACGGGATT
B7: UGCAUUU (DNA:RNA)
RNA: B1 RNA with G25U, A26G, U28A, G29U, C31U
DNA 1: CAATCTGAATTCCGGTCTCCC
DNA 2: TGGTGGCTACGACGGGATT
B8: CAUCAAU (DNA:RNA)
RNA: B3 RNA with U25C, U26A, G27U, C30A, G31U
DNA 1: CAATCTGAATTCCGGTCTCCC
DNA 2: TGGTGGCTACGACGGGATT
B9: ACCCACC (DNA:RNA)
RNA: B3 RNA with U25A, U26C, G27C, G31C
DNA 1: CAATCTGAATTCCGGTCTCCC
DNA 2: TGGTGGCTACGACGGGATT
B10: GCCAGAU (DNA:RNA)
RNA: B1 RNA with A26C, U28A, U30A, C31U
DNA 1: CAATCTGAATTCCGGTCTCCC
DNA 2: TGGTGGCTACGACGGGATT
B11: AUGCAGG (DNA:RNA)
RNA: B3 RNA with U25A, C30G
DNA 1: CAATCTGAATTCCGGTCTCCC
DNA 2: TGGTGGCTACGACGGGATT
B12: CCCCAAA (DNA:RNA)
RNA: B3 RNA with U25C, U26C, G27C, C30A, G31A
DNA 1: CAATCTGAATTCCGGTCTCCC
DNA 2: TGGTGGCTACGACGGGATT
B13: GGAGAGG (DNA:RNA)
RNA: B3 RNA with U25G, U26G, G27A, C28G, C30G
DNA 1: CAATCTGAATTCCGGTCTCCC
DNA 2: TGGTGGCTACGACGGGATT
B14: UUUCAAU (DNA:RNA)
RNA: B3 RNA with G27U, C30A, G31U
DNA 1: CAATCTGAATTCCGGTCTCCC
DNA 2: TGGTGGCTACGACGGGATT
B15: AUUUAGC (DNA:RNA)
RNA: B1 RNA with G25A, A26U, C27U, G29A, U30G
DNA 1: CAATCTGAATTCCGGTCTCCC
DNA 2: TGGTGGCTACGACGGGATT
B16: GGGCAAA (DNA:RNA)
RNA: B3 RNA with U25G, U26G, C30A, G31A
DNA 1: CAATCTGAATTCCGGTCTCCC
DNA 2: TGGTGGCTACGACGGGATT
B17: GCGAACU (DNA:RNA)
RNA: B3 RNA with U25G, U26C, C28A, G31U
DNA 1: CAATCTGAATTCCGGTCTCCC
DNA 2: TGGTGGCTACGACGGGATT
B18: CAAAGAA (DNA:RNA)
RNA: B1 RNA with G25C, C27A, U28A, U30A, C31A
DNA 1: CAATCTGAATTCCGGTCTCCC
DNA 2: TGGTGGCTACGACGGGATT
B19: AACUGUU (DNA:RNA)
RNA: B1 RNA with G25A, C31U
DNA 1: CAATCTGAATTCCGGTCTCCC
DNA 2: TGGTGGCTACGACGGGATT
B20: ACUAGGG (DNA:RNA)
RNA: B1 RNA with G25A, A26C, C27U, U28A, U30G, C31G
DNA 1: CAATCTGAATTCCGGTCTCCC
DNA 2: TGGTGGCTACGACGGGATT

target: T1, RBFOX1 RRM RbFoxmut (Fox-RRM*); assay: EMSA; HiTS-Eq, 1 nM pool, 10 min; buffer printed only for the single-RNA assays: 10 mM Tris pH 7.5, 150 mM NaCl, 3.4 mM EDTA, 0.001% NP-40, 30 C; conditions: tags: His6 N-terminal (pET28a); label: 5' 32P
Procedure, shortened: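 Purified RbFox RRM (wild type or mutant) was equilibrated for 10 min in 50 µL with 1 nM of a 5′-radiolabelled pool of RNA with 7 randomized nucleotides, its flanks annealed to DNA oligonucleotides, across increasing protein concentrations. Free RNA was separated by 8% native PAGE, excised, reverse-transcribed, PCR-barcoded and sequenced on an Illumina HiSeq 2500. Relative association constants came from read-count changes of each variant against the control reaction, normalised to the cognate motif.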

Q: With B1 as the binder, how does the binding signal read?
A: 0.217 KA relative to UGCAUGU

Q: How did the binding signal turn out when B2 was run?
A: 0.163 KA relative to UGCAUGU

Q: B3 was tested. Which binding signal did it give?
A: 0.612 KA relative to UGCAUGU

Q: With B4 as the binder, how does the binding signal read?
A: 0.0816 KA relative to UGCAUGU

Q: For B5, which binding signal is on record?
A: 0.246 KA relative to UGCAUGU

Q: How did the binding signal turn out when B6 was run?
A: 0.0772 KA relative to UGCAUGU

Q: B7 was tested. Which binding signal did it give?
A: 0.137 KA relative to UGCAUGU

Q: For B8, which binding signal is on record?
A: 0.0414 KA relative to UGCAUGU

Q: B9 was tested. Which binding signal did it give?
A: 0.0723 KA relative to UGCAUGU

Q: How did the binding signal turn out when B10 was run?
A: 0.0881 KA relative to UGCAUGU

Q: B11 was tested. Which binding signal did it give?
A: 0.118 KA relative to UGCAUGU

Q: Which binding signal does the source give for B12 here?
A: 0.0725 KA relative to UGCAUGU

Q: For B13, which binding signal is on record?
A: 0.0582 KA relative to UGCAUGU

Q: How did the binding signal turn out when B14 was run?
A: 0.0446 KA relative to UGCAUGU

Q: For B15, which binding signal is on record?
A: 0.134 KA relative to UGCAUGU

Q: How did the binding signal turn out when B16 was run?
A: 0.0833 KA relative to UGCAUGU

Q: Which binding signal does the source give for B17 here?
A: 0.0629 KA relative to UGCAUGU

Q: B18 was tested. Which binding signal did it give?
A: 0.0909 KA relative to UGCAUGU

Q: With B19 as the binder, how does the binding signal read?
A: 0.097 KA relative to UGCAUGU

Q: For B20, which binding signal is on record?
A: 0.0967 KA relative to UGCAUGU
